Measurements published in the RNAGym collection of RNA variant scans (doi:10.1073/pnas.2313332121).
Variants at the floor of the assay are shown more often than the library holds them.

B1: TPR 5TU (parent)
chain: GGAUCUUCUCGAUCUAACAAAAAAGACAAAUCUGCCACAAAGCUUGAGAGCAUCUUCGGAUGCAGAGGCGGCAGCCUUCGGUGGCGCGAUAGCGCCAACGUUCUCAACUAUGACACGCAAAACGCGUGCUCCGUUGAAUGGAGUUUAUCAUG

Variants of: B1
Experiment: polymerase ribozyme fitness, log enrichment relative to wild type (log ratio); higher = more active; in vitro selection for triplet polymerase activity
Outline: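 For each subunit of a heterodimeric triplet polymerase ribozyme, a mutant library was built by PCR and transcribed, then taken through a single in vitro selection round in triplicate. Selection involved annealing to a biotinylated primer, the partner subunit and triplets, incubation frozen at −7 °C, gel excision of extended constructs, capture on streptavidin beads and RT-PCR. Genotypes were retained after Illumina sequencing of inputs and outputs only with ≥10 input reads and ≥1 read in each output. Fitness is defined as the logarithm of a genotype's enrichment relative to wild-type enrichment, using inverse-variance-weighted averages across replicates, with the logarithm taken to base 2.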

Variant	polymerase ribozyme fitness (log ratio)
C54U G65U G81A C93U A97U	≤ -4.2
C54U G81A C95U	-0.559
C54A U55G G83A U102C C108G G126A	≤ -4.2
C54U G100A U101A	≤ -4.2
C54U A60C C75A A91U C96U A97G A107C G136A A137U	≤ -4.2
U55A C63G A91U G92A G100C	≤ -4.2
U55A A89G	-1.16
C54G C72A A115U	≤ -4.2
U55A A60C G62A G81A C85U G133C	≤ -4.2
C54A C95U A106C	-2.19
C54G U77A C125G	≤ -4.2
C54U G70C A91U A97C	≤ -4.2
U55A C57G G88C U90G C116U U127G	≤ -4.2
C54U U77G G83C A150U	≤ -4.2
C54A C96G A97C G143C	≤ -4.2
C54A C118A	-1.5
U55A C75G C132G	≤ -4.2
C54A G65U C76A G81A C108G U145A	≤ -4.2
C54U U77C G92A	≤ -4.2
C54U C57U G100C	≤ -4.2
C54A U56A C93A A98U A138C U151G	≤ -4.2

Variant	polymerase ribozyme fitness (log ratio)
U55A A73C C87G	≤ -4.2
C54U G74C C76G C123U	≤ -4.2
C54U G59C A66G C99A G140A A147C	≤ -4.2
C54G C76A C85G	-2.78
C54A U90C C95A C114G G133A	≤ -4.2
C54U A73G G92U C96U C118G G141C	≤ -4.2
C54U G86U G100A C132G U148G	≤ -4.2
C54U C93G U127A	≤ -4.2
C54A C85G U102G	≤ -4.2
C54U U144A	-0.258
C54A U55A U56A C96A G141C	-4.08
C54G G133U U144G A150U U151G	≤ -4.2
C54A U55A A60U	-1.37
U55A A64C G84A G92U U145G	≤ -4.2
C54G A89C C123G C131A	≤ -4.2
C54U U56C A73U	-1.06
U55A A64G G84A C93G A137G A142U	≤ -4.2
C54U U61A G68A A120C G126C G140U	≤ -4.2
C54A A91U G100A G141C	≤ -4.2
C54U C96U U127C	≤ -4.2
C54U A66G G83C A98G	≤ -4.2

Variant	polymerase ribozyme fitness (log ratio)
C54A A73U C87U	-3.49
C54U A64G C116G U139G	≤ -4.2
C54U U148C	-1.84
C54A G70C C108U C123U U134C	≤ -4.2
C54U C63A C149U	-1.67
C54U U56A G86A U102A C116A	-2.55
C54G G81C A107U A113C A119U	≤ -4.2
C54U C103A	-2.22
U55A A91G U102G A150C	≤ -4.2
C54U C69U C85A A110C G143A	≤ -4.2
C54G C57A G74A A91C C95U C132A	≤ -4.2
C54U C79G C93U A98U C99A C105G C116U A142C U144C	≤ -4.2
C54U G70C C93U C116U C125A A138U G141U	≤ -4.2
U55A C69A C95G C96A	≤ -4.2
C54U U61A A106G G152C	≤ -4.2
C54U A107U U111G U135A U146C	-4
U55A A66C	≤ -4.2
U55A A121C	-0.369
U55A A121U	-0.372
C54U C57G C87A G128A	≤ -4.2
U55A A107G A138C C149U	≤ -4.2

Variant	polymerase ribozyme fitness (log ratio)
C54G A97C G124A	-0.735
C54U A73G G83C A97G U134C G140A	≤ -4.2
C54U A110U	≤ -4.2
U55A A98U A110U C131G	≤ -4.2
C54U G59C A60U A66C	≤ -4.2
C54A G65C C93G	≤ -4.2
C54A A64C C85A G92U A121U C125G U134G U139G	≤ -4.2
C54A G126U C131G	≤ -4.2
C54G A89U A147C	-2.1
C54A G58C C95G C108A	≤ -4.2
U55A C79A G92A G100A U109C	≤ -4.2
C54U C95A A110C	≤ -4.2
C54U C85G C93U A97C A137U U139G	≤ -4.2
C54U G58A A64C G71A	≤ -4.2
C54G C85U C99G	-3.45
C54G G92C A106G	-2.99
C54U G86C A138C G140A A150G	≤ -4.2
C54A C87A U130A	≤ -4.2
C54U G124C	-0.768
U55A C75U G92A U104G G133U C149U	≤ -4.2
